Assay results: the supplement of paper PMC4967469
By IC50 is meant the dose at which the fit gives 50% viability; a fit beyond the top or the lowest dose is shown as a bound at that dose. AUC is the area under the same curve over the 256-fold range up to the top dose, as a fraction; it is 1 without any effect and falls as sensitivity rises. Drugs with an entry number were screened twice under separate entries, and the two screens often disagree.

Compound: CS(=O)(=O)N1CCN(Cc2cc3nc(-c4cccc5[nH]ncc45)nc(N4CCOCC4)c3s2)CC1 [GDC0941]
Experiment: Viability of human cancer cell lines after 72 h of drug (GDSC screen)
Settings: screen: GDSC drug entry 1058
Description: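 Human cancer cell lines in 384-well plates, medium with 10% serum, drug for 72 h over a 256-fold dose range (nine 2-fold or five 4-fold steps up to the top dose). Adherent lines were fixed and stained with the nucleic acid dye Syto60, suspension lines read with resazurin; signal relative to control wells, capped at 0 and 100%. One two-parameter sigmoid per drug and line, fitted in a mixed model over all curves with the slope shared within a line.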

Row | Cell Line | AUC | IC50 [µM]
1 | PWR-1E (prostate, adherent, top dose 4 µM) | 0.821 | 2.3
2 | SCC-25 (head and neck, adherent, top dose 4 µM) | 0.697 | 0.97
3 | VMRC-LCD (lung adenocarcinoma, adherent, top dose 4 µM) | 0.97 | > 4
4 | MFE-280 (endometrium, adherent, top dose 4 µM) | 0.812 | 2.89
5 | PCI-6A (head and neck, adherent, top dose 4 µM) | 0.648 | 0.637
6 | AGS (stomach, adherent, top dose 4 µM) | 0.627 | 0.538
7 | KP-N-YN (neuroblastoma, adherent, top dose 4 µM) | 0.977 | > 4
8 | BT-483 (breast, adherent, top dose 4 µM) | 0.868 | > 4
9 | JHH-4 (liver, adherent, top dose 4 µM) | 0.858 | 3.28
10 | NCI-H1876 (small cell lung carcinoma, adherent, top dose 4 µM) | 0.505 | 0.258
11 | D-283MED (medulloblastoma, adherent, top dose 4 µM) | 0.757 | 1.27
12 | BxPC-3 (pancreas, adherent, top dose 4 µM) | 0.855 | 3.81
13 | NCI-H596 (lung adenocarcinoma, adherent, top dose 4 µM) | 0.844 | > 4
14 | BC-1 (B-cell lymphoma, suspension, top dose 4 µM) | 0.98 | > 4
15 | HT-3 (cervix, adherent, top dose 4 µM) | 0.816 | 2.26
16 | KINGS-1 (glioma, adherent, top dose 4 µM) | 0.826 | 3.76
17 | JHH-2 (liver, adherent, top dose 4 µM) | 0.871 | > 4
18 | RPMI-2650 (head and neck, adherent, top dose 4 µM) | 0.817 | 2.46
19 | CA46 (Burkitt lymphoma, suspension, top dose 4 µM) | 0.899 | > 4
20 | HCC-366 (non-small cell lung carcinoma, adherent, top dose 4 µM) | 0.845 | 3.06
21 | U-698-M (B-cell leukaemia, suspension, top dose 4 µM) | 0.821 | 2.32

Row | Cell Line | AUC | IC50 [µM]
22 | SW1783 (glioma, adherent, top dose 4 µM) | 0.861 | 2.86
23 | SBC-3 (small cell lung carcinoma, adherent, top dose 4 µM) | 0.881 | 3.52
24 | SK-MEL-3 (melanoma, adherent, top dose 4 µM) | 0.911 | > 4
25 | FADU (head and neck, adherent, top dose 4 µM) | 0.746 | 1.23
26 | LB831-BLC (bladder, adherent, top dose 4 µM) | 0.907 | > 4
27 | TK10 (kidney, adherent, top dose 4 µM) | 0.753 | 1.59
28 | COR-L23 (large cell lung carcinoma, adherent, top dose 4 µM) | 0.865 | –
29 | LoVo (large intestine, adherent, top dose 4 µM) | 0.682 | 0.812
30 | OE33 (oesophagus, adherent, top dose 4 µM) | 0.829 | 3.16
31 | BB49-HNC (head and neck, adherent, top dose 4 µM) | 0.734 | 1.56
32 | DIFI (large intestine, adherent, top dose 4 µM) | 0.682 | 0.826
33 | SCC-9 (head and neck, adherent, top dose 4 µM) | 0.946 | > 4
34 | C2BBe1 (large intestine, adherent, top dose 2 µM) | 0.938 | > 2
35 | JSC-1 (B-cell lymphoma, suspension, top dose 4 µM) | 0.977 | > 4
36 | RPMI-8402 (T-cell lymphoblastic leukaemia, suspension, top dose 4 µM) | 0.571 | 0.378
37 | HDLM-2 (Hodgkin lymphoma, suspension, top dose 4 µM) | 0.944 | > 4
38 | SUP-B15 (lymphoblastic leukaemia, suspension, top dose 4 µM) | 0.716 | 0.99
39 | DMS-273 (small cell lung carcinoma, adherent, top dose 4 µM) | 0.811 | 2.27
40 | NCI-H2085 (lung adenocarcinoma, adherent, top dose 2 µM) | 0.769 | 0.819
41 | G-402 (soft tissue, adherent, top dose 4 µM) | 0.55 | 0.359
42 | KP-2 (pancreas, adherent, top dose 4 µM) | 0.792 | 1.97

Row | Cell Line | AUC | IC50 [µM]
43 | HT-144 (melanoma, adherent, top dose 4 µM) | 0.977 | > 4
44 | SW954 (urogenital system, adherent, top dose 4 µM) | 0.868 | 3.71
45 | TGBC1TKB (biliary tract, adherent, top dose 4 µM) | 0.847 | 2.92
46 | LB771-HNC (head and neck, adherent, top dose 4 µM) | 0.922 | > 4
47 | CMK (acute myeloid leukaemia, suspension, top dose 4 µM) | 0.929 | > 4
48 | JAR (urogenital system, adherent, top dose 4 µM) | 0.988 | > 4
49 | RPMI-6666 (Hodgkin lymphoma, suspension, top dose 4 µM) | 0.686 | 0.926
50 | LNZTA3WT4 (glioma, adherent, top dose 4 µM) | 0.951 | > 4
51 | JHOS-3 (ovary, adherent, top dose 4 µM) | 0.827 | 3.42
52 | KLE (endometrium, adherent, top dose 4 µM) | 0.855 | > 4
53 | VA-ES-BJ (soft tissue, adherent, top dose 4 µM) | 0.761 | 1.49
54 | HCC1428 (breast, adherent, top dose 4 µM) | 0.984 | > 4
55 | PCI-30 (head and neck, adherent, top dose 4 µM) | 0.802 | 2.52
56 | LN-405 (glioma, adherent, top dose 4 µM) | 0.789 | 2.28
57 | NCI-H1155 (large cell lung carcinoma, suspension, top dose 4 µM) | 0.784 | 1.38
58 | NCI-H187 (small cell lung carcinoma, suspension, top dose 4 µM) | 0.784 | 1.86
59 | SU-DHL-5 (B-cell lymphoma, suspension, top dose 4 µM) | 0.357 | 0.112
60 | 639-V (bladder, adherent, top dose 4 µM) | 0.651 | 0.61
61 | KARPAS-1106P (B-cell lymphoma, suspension, top dose 4 µM) | 0.427 | 0.164
62 | NCI-H520 (lung squamous cell carcinoma, adherent, top dose 4 µM) | 0.697 | 0.914
63 | NCI-H2444 (non-small cell lung carcinoma, adherent, top dose 4 µM) | 0.859 | > 4

Row | Cell Line | AUC | IC50 [µM]
64 | NCI-SNU-1 (stomach, suspension, top dose 4 µM) | 0.981 | > 4
65 | SK-MEL-5 (melanoma, adherent, top dose 4 µM) | 0.781 | 2.05
66 | AsPC-1 (pancreas, adherent, top dose 2 µM) | 0.837 | > 2
67 | MONO-MAC-6 (acute myeloid leukaemia, suspension, top dose 4 µM) | 0.506 | 0.259
68 | SKM-1 (haematopoietic neoplasm, suspension, top dose 4 µM) | 0.445 | 0.174
69 | A253 (head and neck, adherent, top dose 4 µM) | 0.975 | > 4
70 | SCH (stomach, adherent, top dose 4 µM) | 0.906 | > 4
71 | UACC-62 (melanoma, adherent, top dose 4 µM) | 0.959 | > 4
72 | ES3 (Ewing sarcoma, adherent, top dose 2 µM) | 0.953 | > 2
73 | SW780 (bladder, adherent, top dose 4 µM) | 0.858 | 3.78
74 | NCI-H2135 (non-small cell lung carcinoma, adherent, top dose 4 µM) | 0.991 | > 4
75 | ES5 (Ewing sarcoma, adherent, top dose 4 µM) | 0.299 | 0.062
76 | DBTRG-05MG (glioma, adherent, top dose 4 µM) | 0.913 | > 4
77 | LAMA-84 (chronic myeloid leukaemia, suspension, top dose 4 µM) | 0.865 | 3.63
78 | NCI-H1355 (lung adenocarcinoma, adherent, top dose 2 µM) | 0.84 | > 2
79 | Becker (glioma, adherent, top dose 4 µM) | 0.797 | 2.16
80 | D-542MG (glioma, adherent, top dose 4 µM) | 0.863 | > 4
81 | KYSE-220 (oesophagus, adherent, top dose 4 µM) | 0.974 | > 4
